We go through 43 molecules from PMC4336329 (PLoS ONE, 2015).

About 2,200 (0.71%) of roughly 310,000 compounds showed an effect of 50% or more. Effects have a minus sign here. The list shows a part of the results.

In the assay the target is human ether-à-go-go-related gene (hERG) potassium channel (human, UniProt Q12809). The assay can be described thus: primary screen, population patch clamp on CHO cells stably expressing hERG.
human ether-à-go-go-related gene (hERG) potassium channel, sequence (Q12809 whole entry, looked up): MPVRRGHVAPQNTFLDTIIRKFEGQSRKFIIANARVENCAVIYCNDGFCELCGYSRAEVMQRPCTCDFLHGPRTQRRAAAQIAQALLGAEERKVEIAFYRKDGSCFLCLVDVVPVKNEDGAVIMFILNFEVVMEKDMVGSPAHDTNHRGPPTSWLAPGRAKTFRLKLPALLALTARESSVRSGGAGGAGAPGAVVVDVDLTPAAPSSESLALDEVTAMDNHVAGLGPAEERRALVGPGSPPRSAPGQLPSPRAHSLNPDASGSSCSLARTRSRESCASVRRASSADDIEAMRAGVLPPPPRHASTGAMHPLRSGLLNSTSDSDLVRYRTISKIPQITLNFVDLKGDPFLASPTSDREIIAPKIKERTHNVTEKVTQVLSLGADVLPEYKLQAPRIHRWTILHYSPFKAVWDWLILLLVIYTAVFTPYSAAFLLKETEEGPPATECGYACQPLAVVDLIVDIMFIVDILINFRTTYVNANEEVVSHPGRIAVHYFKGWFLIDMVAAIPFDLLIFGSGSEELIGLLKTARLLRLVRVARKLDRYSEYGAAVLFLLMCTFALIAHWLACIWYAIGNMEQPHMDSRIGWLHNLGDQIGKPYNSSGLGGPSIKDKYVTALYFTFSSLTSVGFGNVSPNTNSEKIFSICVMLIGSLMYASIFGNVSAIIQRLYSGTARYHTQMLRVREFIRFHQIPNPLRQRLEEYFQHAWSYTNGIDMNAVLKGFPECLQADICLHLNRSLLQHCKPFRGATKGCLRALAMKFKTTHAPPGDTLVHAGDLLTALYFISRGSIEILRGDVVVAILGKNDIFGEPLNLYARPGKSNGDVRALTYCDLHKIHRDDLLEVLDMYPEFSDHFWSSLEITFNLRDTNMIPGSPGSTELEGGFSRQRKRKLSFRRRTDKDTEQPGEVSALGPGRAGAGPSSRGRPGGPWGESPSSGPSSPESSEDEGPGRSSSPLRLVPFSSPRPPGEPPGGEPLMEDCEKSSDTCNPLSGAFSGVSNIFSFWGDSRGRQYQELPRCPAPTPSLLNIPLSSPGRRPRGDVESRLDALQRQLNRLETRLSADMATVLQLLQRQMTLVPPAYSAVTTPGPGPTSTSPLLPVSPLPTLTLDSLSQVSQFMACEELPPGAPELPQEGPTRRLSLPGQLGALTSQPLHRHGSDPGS
As for `C=CCN(Cc1cccc(OC)c1OC)C(=O)Oc1ccccc1`, the “hERG current change (%, negative = inhibition) at 1uM” value came to 14.3%.

With `O=C(NCc1nc2ccccc2[nH]1)C1=C[C@@H](c2csc3ccccc23)C[C@@H](OCc2ccc(CO)cc2)O1`, the “hERG current change (%, negative = inhibition) at 1uM” value is listed as 8.2%.

On to `COc1ccccc1NC(=O)Cc1nc(CCl)cs1.Cl`, for which the “hERG current change (%, negative = inhibition) at 1uM” value is reported as 4.96%.

In the case of `COc1ccc(N2CCN(c3ncnc4scc(-c5ccccc5)c34)CC2)cc1`, the “hERG current change (%, negative = inhibition) at 1uM” value is 10.6%.

On to `C=CCNc1nc(C(=O)OCC(=O)NCc2ccccc2OC)cs1`, for which the “hERG current change (%, negative = inhibition) at 1uM” value is on record as 15%.

With `C/C(=N\N=C(c1ccccc1)c1ccccc1)c1cccs1`, the “hERG current change (%, negative = inhibition) at 1uM” value turned out to be 5.65%.

Consider `O=C(Nc1nnc(SCc2ccccc2F)s1)c1ccco1`, for which the “hERG current change (%, negative = inhibition) at 1uM” value stood at 0.801%.

Take `COc1ccc(NC(=O)CCCN2C(=O)C(c3ccccc3)Oc3cccnc32)c(OC)c1` (stereo not shown): the “hERG current change (%, negative = inhibition) at 1uM” value was found to be 10.6%.

Consider `O=C(O)c1ccc(Cn2c(SCc3cc(=O)n4cc(Br)ccc4n3)nc3ccsc3c2=O)cc1`, for which the “hERG current change (%, negative = inhibition) at 1uM” value amounted to 3.87%.

As for `Cc1ccc(S(N)(=O)=O)cc1NC(=O)C(c1ccccc1)c1ccccc1`, the “hERG current change (%, negative = inhibition) at 1uM” value amounted to 20.4%.

As for `COc1ccc(C(=O)c2sc(Nc3ccccc3)nc2N)cc1`, the “hERG current change (%, negative = inhibition) at 1uM” value is 16.7%.

As to `CC(C)C[C@@H](NC(=O)C1CCC(CNC(=O)[C@@H]2CCCN2C(=O)OC(C)(C)C)CC1)C(=O)O` (stereo partly shown), the “hERG current change (%, negative = inhibition) at 1uM” value turned out to be 12.2%.

In the case of `CCCCNCCOCCOc1ccc(C)cc1Br.O=C(O)C(=O)O`, the “hERG current change (%, negative = inhibition) at 1uM” value was -5.59%.

With `O=C(NCCc1ccc(Cl)cc1)c1ccc(CS(=O)Cc2ccc(Cl)cc2)o1` (stereo not shown), the “hERG current change (%, negative = inhibition) at 1uM” value is 3.84%.

Regarding `CCCc1c(C)[nH]c2ccc(NC(C)=O)cc2c1=O`, the “hERG current change (%, negative = inhibition) at 1uM” value turned out to be 10.7%.

With `CC1(C)Cc2nc3nc(SCC(=O)NCCc4ccccc4)n(-c4ccccc4)c(=O)c3cc2CO1`, the “hERG current change (%, negative = inhibition) at 1uM” value was -9.93%.

For `CCCN(CCC)S(=O)(=O)c1ccc(C(=O)Nc2cc3oc4ccccc4c3cc2OC)cc1`, the “hERG current change (%, negative = inhibition) at 1uM” value was found to be 4.46%.

Turning to `c1nc(N2CCCCCC2)c2[nH]cnc2n1`, the “hERG current change (%, negative = inhibition) at 1uM” value was determined as 6.77%.

For `COc1ccc(NC(=O)CCCN2C(=O)C(c3ccccc3)Oc3cccnc32)cc1OC` (stereo not shown), the “hERG current change (%, negative = inhibition) at 1uM” value came to 1.61%.

Take `COc1cc(C(=O)N2CCN(c3ccc([N+](=O)[O-])cc3)CC2)ccc1OCc1c(C)noc1C`: the “hERG current change (%, negative = inhibition) at 1uM” value was -4.59%.

`COc1ccc(C(=O)NC2CCCc3c2cnn3-c2cc(F)cc(F)c2)c(OC)n1` (stereo not shown): the “hERG current change (%, negative = inhibition) at 1uM” value was 10.5%.

With `CCCC(=O)Nc1ccccc1NC(C)=O`, the “hERG current change (%, negative = inhibition) at 1uM” value is listed as 9.5%.

With `CC(Nc1nc(N2CCN(CCO)CC2)nc2ccccc12)c1ccccc1` (stereo not shown), the “hERG current change (%, negative = inhibition) at 1uM” value is reported as -25.9%.

As for `N#CCSc1nc2ccccc2c(=O)n1CCC(=O)NC1CCCCC1`, the “hERG current change (%, negative = inhibition) at 1uM” value is -5.72%.

With `CNS(=O)(=O)c1cccc(C(=O)OCC(=O)c2cc(C)n(-c3ccc4c(c3)OCO4)c2C)c1`, the “hERG current change (%, negative = inhibition) at 1uM” value is reported as 3.72%.

As for `Cc1ccc(S(=O)(=O)Nc2ccccc2CNc2ccc(Br)cn2)cc1`, the “hERG current change (%, negative = inhibition) at 1uM” value is 7.02%.

As to `O=C(NCCc1ccccc1F)C1CC(=O)N(c2ccccc2)C1` (stereo not shown), the “hERG current change (%, negative = inhibition) at 1uM” value is listed as 6.74%.

`COc1ccc(N2C(=O)CCC2(C#N)c2ccc(OC)cc2)cc1` (stereo not shown): the “hERG current change (%, negative = inhibition) at 1uM” value was 19.6%.

With `O=C(Nc1ncc(Cc2ccccc2)s1)C1CCCO1` (stereo not shown), the “hERG current change (%, negative = inhibition) at 1uM” value was found to be 7.95%.

In the case of `CCOc1nc(C)cc(C)c1S(=O)(=O)c1cccc(Cl)c1`, the “hERG current change (%, negative = inhibition) at 1uM” value amounted to 18.6%.

Regarding `Cn1nnnc1SCC(=O)Nc1ccccc1N1CCOCC1`, the “hERG current change (%, negative = inhibition) at 1uM” value came out at 8.58%.

Turning to `CCNc1nnc(SCC(=O)N2c3ccccc3NC(=O)CC2C)s1` (stereo not shown), the “hERG current change (%, negative = inhibition) at 1uM” value stood at 13.2%.

For the molecule `CCOC(=O)c1c(C)nc2c(c1C)/C(=N/O)CC(C)(C)C2`, the “hERG current change (%, negative = inhibition) at 1uM” value turned out to be 11.6%.

Regarding `Cc1cc(NC(=O)CSc2nnc(CNC(=O)c3ccccc3)o2)no1`, the “hERG current change (%, negative = inhibition) at 1uM” value amounted to 4.63%.

As to `COc1ccc(-n2c(-c3ccccc3)c[n+]3c2CCC3)cc1.[Br-]`, the “hERG current change (%, negative = inhibition) at 1uM” value was 6.43%.

As for `O=C(Cn1cnc2c(nnn2-c2ccccc2)c1=O)N1CCCc2ccccc21`, the “hERG current change (%, negative = inhibition) at 1uM” value is recorded as -4.2%.

As to `O=S(=O)(CCc1nnc(-c2ccc(Br)cc2)o1)c1ccc(Cl)cc1`, the “hERG current change (%, negative = inhibition) at 1uM” value worked out at 6.04%.

`CC1CCCC(NC(=O)CSC2CCCCC2)C1C` (stereo not shown): the “hERG current change (%, negative = inhibition) at 1uM” value was -4.18%.

As to `COCCSc1ccccc1C(=O)Nc1ccccc1C(C)C`, the “hERG current change (%, negative = inhibition) at 1uM” value is reported as 8.69%.

Regarding `O=c1c(/C=N/N2CCOCC2)c(C(F)(F)F)[nH]n1-c1ccccc1`, the “hERG current change (%, negative = inhibition) at 1uM” value is 5%.

For `O=C(Cn1cnc2c(nnn2Cc2ccccc2F)c1=O)NCc1ccco1`, the “hERG current change (%, negative = inhibition) at 1uM” value stood at 3.49%.

`COC(=O)c1ccc(C)c(NC(=O)C(CCSC)NC(=O)c2cc(OC)c(OC)c(OC)c2)c1` (stereo not shown): the “hERG current change (%, negative = inhibition) at 1uM” value was 13.8%.

Take `CCN(CCCNC(=O)c1c(C)cc(=O)oc1C)c1cccc(C)c1`: the “hERG current change (%, negative = inhibition) at 1uM” value is -10.5%.
